Legend:
[1] = test system: grape downy mildew fungus (Plasmopara viticola); assay: Test Example G: grape downy mildew, spray treatment of grape plants; settings: grape downy mildew, 250 ppm spray (2.5 ml/pot), 7 to 10 days after inoculation
[2] = test system: cabbage Alternaria sooty spot fungi (Alternaia brassicicola); assay: Test Example C: cabbage Alternaria sooty spot, spray treatment of cabbage plants; assay type: in vivo; settings: cabbage Alternaria sooty spot, spray treatment of cabbage plants
Source text: [Test Example C] Cabbage Alternaria Sooty Spot
Test plants (cabbage variety: Shikidori) were cultivated until the cotyledons extended after the sowing of seeds.
<Control Value> Control value=100{1−(n/3)}

[3] = test system: gray mold fungi (Botrytis cinerea); assay: Test Example B: tomato gray mold, spray treatment of tomato plants; settings: tomato gray mold, spray treatment of tomato plants
[4] = test system: wheat brown rust fungi (Puccinia recondita); assay: Test Example E: wheat brown rust, spray treatment of wheat plants; assay type: in vivo; settings: wheat brown rust, spray treatment of wheat plants
[5] = test system: barley powdery mildew fungi (Blumeria graminis f. sp. hordei); assay: Test Example D: barley powdery mildew, spray treatment of barley plants; settings: barley powdery mildew, spray treatment of barley plants

SMILES	Test G control value [1]	Test C control value [2]	Test B control value [3]	Test E control value [4]	Test D control value [5]
Cc1c(F)cccc1-n1cc(Br)c(=O)c(Cl)c1-c1c(F)cc(F)cc1F [Compound 187]	L (L shows the control value of 50% or less)	H (H shows the control value of more than 50%)	H (H shows the control value of more than 50%)	H (H shows the control value of more than 50%)	H (H shows the control value of more than 50%)
Cc1c(F)cccc1-n1cc(Cl)c(=O)c(Br)c1-c1c(F)cc(F)cc1F [Compound 189]	L (L shows the control value of 50% or less)	H (H shows the control value of more than 50%)	H (H shows the control value of more than 50%)	H (H shows the control value of more than 50%)	H (H shows the control value of more than 50%)
O=c1c(Br)cn(-c2ccccc2C(F)(F)F)c(-c2c(F)cc(F)cc2F)c1Br [Compound 191]	L (L shows the control value of 50% or less)	H (H shows the control value of more than 50%)	H (H shows the control value of more than 50%)	H (H shows the control value of more than 50%)	L (L shows the control value of 50% or less)
O=c1c(Br)cn(-c2ccccc2C(F)(F)F)c(-c2c(F)cc(F)cc2F)c1Cl [Compound 192]	L (L shows the control value of 50% or less)	H (H shows the control value of more than 50%)	H (H shows the control value of more than 50%)	H (H shows the control value of more than 50%)	L (L shows the control value of 50% or less)
CC(C)(C)Cn1cc(Cl)c(=O)c(Cl)c1-c1c(F)cc(F)cc1F [Compound 193]	L (L shows the control value of 50% or less)	H (H shows the control value of more than 50%)	H (H shows the control value of more than 50%)	H (H shows the control value of more than 50%)	H (H shows the control value of more than 50%)
CC(C)(C)Cn1cc(Cl)c(=O)c(Br)c1-c1c(F)cc(F)cc1F [Compound 194]	L (L shows the control value of 50% or less)	H (H shows the control value of more than 50%)	H (H shows the control value of more than 50%)	H (H shows the control value of more than 50%)	L (L shows the control value of 50% or less)
CC(C)(C)Cn1cc(Br)c(=O)c(Cl)c1-c1c(F)cc(F)cc1F [Compound 195]	H (H shows the control value of more than 50%)	H (H shows the control value of more than 50%)	H (H shows the control value of more than 50%)	H (H shows the control value of more than 50%)	H (H shows the control value of more than 50%)
CC(C)(C)Cn1cc(Br)c(=O)c(Br)c1-c1c(F)cc(F)cc1F [Compound 196]	L (L shows the control value of 50% or less)	H (H shows the control value of more than 50%)	H (H shows the control value of more than 50%)	H (H shows the control value of more than 50%)	H (H shows the control value of more than 50%)
Cc1ccccc1-n1cc(C)c(=O)c(Br)c1-c1c(F)cc(F)cc1F [Compound 197]	H (H shows the control value of more than 50%)	H (H shows the control value of more than 50%)	H (H shows the control value of more than 50%)	H (H shows the control value of more than 50%)	H (H shows the control value of more than 50%)
O=c1c(Cl)cn(-c2ccccc2C(F)(F)F)c(-c2c(F)cc(F)cc2F)c1Br [Compound 198]	L (L shows the control value of 50% or less)	H (H shows the control value of more than 50%)	H (H shows the control value of more than 50%)	H (H shows the control value of more than 50%)	L (L shows the control value of 50% or less)
O=c1c(Cl)cn(-c2ccccc2C(F)(F)F)c(-c2c(F)cc(F)cc2F)c1Cl [Compound 199]	L (L shows the control value of 50% or less)	H (H shows the control value of more than 50%)	H (H shows the control value of more than 50%)	H (H shows the control value of more than 50%)	L (L shows the control value of 50% or less)
CC(C)CCn1cc(Cl)c(=O)c(Cl)c1-c1c(F)cc(F)cc1F [Compound 200]	L (L shows the control value of 50% or less)	H (H shows the control value of more than 50%)	L (L shows the control value of 50% or less)	L (L shows the control value of 50% or less)	L (L shows the control value of 50% or less)
CC(C)CCn1cc(Cl)c(=O)c(Br)c1-c1c(F)cc(F)cc1F [Compound 201]	L (L shows the control value of 50% or less)	H (H shows the control value of more than 50%)	L (L shows the control value of 50% or less)	L (L shows the control value of 50% or less)	L (L shows the control value of 50% or less)
CC(C)CCn1cc(Br)c(=O)c(Cl)c1-c1c(F)cc(F)cc1F [Compound 202]	L (L shows the control value of 50% or less)	H (H shows the control value of more than 50%)	L (L shows the control value of 50% or less)	L (L shows the control value of 50% or less)	L (L shows the control value of 50% or less)
CC(C)CCn1cc(Br)c(=O)c(Br)c1-c1c(F)cc(F)cc1F [Compound 203]	L (L shows the control value of 50% or less)	H (H shows the control value of more than 50%)	H (H shows the control value of more than 50%)	L (L shows the control value of 50% or less)	L (L shows the control value of 50% or less)
COc1cc(F)c(-c2c(Br)c(=O)c(Cl)cn2CCC(C)C)c(F)c1 [Compound 204]	L (L shows the control value of 50% or less)	H (H shows the control value of more than 50%)	H (H shows the control value of more than 50%)	L (L shows the control value of 50% or less)	L (L shows the control value of 50% or less)
CCc1c(-c2c(F)cc(F)cc2F)n(-c2ccccc2C)cc(Br)c1=O [Compound 205]	L (L shows the control value of 50% or less)	H (H shows the control value of more than 50%)	H (H shows the control value of more than 50%)	H (H shows the control value of more than 50%)	H (H shows the control value of more than 50%)

Source: patent US11000038B2, “Pyridone compounds and agricultural and horticultural fungicides containing the same as active ingredients” (priority 2017, dated 2021)
